# Data as given in the BET-seq Pho4 binding data (Le et al. 2018).
# The list shows a part of the results. The energies were worked out here from pooled read counts, against the library average; single values are noisy.
# Biological target: T1, Pho4 (S. cerevisiae) (UniProt P07270)
# T1 sequence: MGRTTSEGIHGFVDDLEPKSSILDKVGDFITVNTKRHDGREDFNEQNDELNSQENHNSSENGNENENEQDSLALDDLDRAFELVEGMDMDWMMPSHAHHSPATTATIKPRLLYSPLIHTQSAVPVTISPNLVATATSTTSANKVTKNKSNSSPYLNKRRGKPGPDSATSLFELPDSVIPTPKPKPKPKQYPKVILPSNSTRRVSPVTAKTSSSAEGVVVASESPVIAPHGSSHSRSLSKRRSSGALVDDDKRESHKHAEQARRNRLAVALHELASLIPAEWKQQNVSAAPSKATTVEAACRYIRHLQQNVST
# Test: relative binding free energy (BET-seq); higher = weaker binding
# Details: reference: library average
row,Sequence,relative binding free energy [kcal/mol]
1,CGTTACACGTGTGTCG,0.14
2,TTTAGCACGTGGGAGG,-0.11
3,GGATGCACGTGTGTCT,0.01
4,AGAGGCACGTGGTAGA,-0.14
5,CTGTACACGTGGGATT,0.02
6,TGGGGCACGTGTCGGT,-0.06
7,GTGTACACGTGGTTTG,0.01
8,AGTGTCACGTGGTTGG,0
9,GTTGTCACGTGAGGAG,0.31
10,TTCAGCACGTGGGTGG,-0.24
11,GCAGTCACGTGTTTGT,0.05
12,GGGTACACGTGTAGAT,0.25
13,AAATTCACGTGGATGT,0.37
14,GATGCCACGTGTTGGG,0.03
15,TGGGCCACGTGTGGTT,0.03
16,TTCGCCACGTGTAATG,0.28
17,ATGAACACGTGTTTGG,0.06
18,GGGTCCACGTGTGCTT,0.02
19,TCGTTCACGTGATGGA,0.37
20,ATGTTCACGTGATGAG,0.24
21,TTGTACACGTGCGGTG,0.11
22,TTACGCACGTGTTCTT,0.01
23,TAAAGCACGTGTTAAT,-0.1

row,Sequence,relative binding free energy [kcal/mol]
1,TTTTACACGTGGAATA,0.12
2,TGTTTCACGTGATCGC,0.15
3,AATGGCACGTGCGTAG,-0.05
4,CAGTGCACGTGGGGGT,-0.19
5,GTTGGCACGTGTTACG,-0.12
6,AAATTCACGTGTGGTA,0.37
7,TAATGCACGTGTATTT,0.17
8,ATGCTCACGTGAATGT,0.4
9,TTTAGCACGTGGCAGT,-0.09
10,GAAAGCACGTGCAGTG,0.23
11,TGATTCACGTGTGCAA,0.25
12,GTATACACGTGCTGTT,-0.07
13,AGGGACACGTGTAGAT,0.27
14,AAGGGCACGTGGGAAG,-0.25
15,TTACTCACGTGTGGGG,0.19
16,ATTTACACGTGCGATT,0.05
17,TGTGCCACGTGGTTCA,-0.19
18,TGGGGCACGTGAGTTT,0.19
19,CTGTGCACGTGGCGGT,-0.06
20,GAATGCACGTGCGTTG,-0.01
21,TAGGGCACGTGTCGGC,-0.23
22,CGTTGCACGTGATTAG,-0.1
23,CTGGGCACGTGGATGG,-0.13

row,Sequence,relative binding free energy [kcal/mol]
1,TCTGTCACGTGTCGTG,0.21
2,TTGTGCACGTGAAGCA,0.2
3,CGGGACACGTGTTGGT,0.09
4,GGATCCACGTGGGTTG,-0.04
5,GGGATCACGTGGAAAG,0.3
6,CGTTTCACGTGTCTGG,0.31
7,AAAGGCACGTGTGGGC,-0.11
8,TACGGCACGTGTAGGG,-0.02
9,TGTTCCACGTGGTGCT,-0.14
10,ATTAACACGTGTAGTA,-0.06
11,ATCAACACGTGTGGGG,-0.01
12,ATGGACACGTGTCTTG,-0.04
13,TATTTCACGTGAATTG,0.39
14,GGAGGCACGTGTCTGA,-0.1
15,TGGAACACGTGTATTG,-0.03
16,TTTTACACGTGGGTAA,0.09
17,GGTTGCACGTGGCCGT,-0.11
18,GGGTGCACGTGAACGG,0.33
19,AGGGTCACGTGCAAGA,0.24
20,AAGTCCACGTGATGTT,0.23
21,AGTTGCACGTGTAGGT,0.01
22,TGAATCACGTGCTGTT,0.1
23,GTTCTCACGTGGTGCG,0.17

row,Sequence,relative binding free energy [kcal/mol]
1,CTGGTCACGTGTATAT,0.06
2,GGGGACACGTGAATTT,0.41
3,ATAATCACGTGAGTGT,0.25
4,AAATGCACGTGGCTTT,-0.02
5,CTTTACACGTGCATGT,0.24
6,CGCGTCACGTGTTGTA,0.03
7,TGTGGCACGTGGCGCG,-0.25
8,TGGGACACGTGCGTGA,-0.08
9,TTGTGCACGTGTACTG,0.04
10,CGTGTCACGTGGAAGG,0.1
11,TTGGCCACGTGCAGGG,-0.04
12,AGGTTCACGTGTTCTA,0.14
13,ACTGTCACGTGGAGTG,0.05
14,TGTATCACGTGGTGCC,0.12
15,TCGCGCACGTGGGTGG,-0.35
16,GATAACACGTGTAGTG,-0.07
17,TTGTCCACGTGTTTCA,0.15
18,CGGATCACGTGTTTGA,0.05
19,GCTTGCACGTGGAATT,0.23
20,TGAATCACGTGGTTGA,0.12
21,GGTGGCACGTGTACAG,0.07
22,CCTGTCACGTGGTTTT,0.05
23,GCTGTCACGTGTAGGT,0.31

row,Sequence,relative binding free energy [kcal/mol]
1,TTATGCACGTGTAGGA,0.01
2,TAATACACGTGGTGAT,-0.04
3,TTAATCACGTGACGAG,0.51
4,AGAGGCACGTGCTGGG,-0.12
5,TTCAGCACGTGTTTGT,0.01
6,ATATACACGTGATTAA,0.35
7,TAGGGCACGTGCTATT,-0.2
8,ATGGGCACGTGACGTT,0.05
9,ATGTGCACGTGTCGTA,0.02
10,ATTGCCACGTGAAGTT,0.07
11,TGTGGCACGTGGAGCA,-0.27
12,CTGTTCACGTGTTTGA,0.39
13,TGATTCACGTGGCATG,0.14
14,CTTGGCACGTGATGGC,-0.01
15,TGTTGCACGTGACGTA,0.18
16,ATTCGCACGTGTTTCG,0.06
17,CTTATCACGTGTAGCG,0.19
18,TGAAGCACGTGGAGCT,0
19,GCGGTCACGTGTGGTG,0.19
20,AGTTACACGTGGGGGT,-0.03
21,CAGGGCACGTGTGAGT,-0.08
22,GGGTACACGTGATGTA,0.03
23,GAATGCACGTGTGTGC,-0.01
